Data from PubChem BioAssay AID686971 (National Center for Advancing Translational Sciences (NCATS), 2013).
Out of some 360,000 compounds screened, about 7,500 (2.1%) were called active. This list was built around the results that the source calls inconclusive (neither active nor inactive); the mix of calls is not that of the screen. Calls come from the whole dose curve; as a rule, active = well fitted cell-killing curve with a large enough effect; inconclusive = small, poorly fitted or top-dose-only effect, or effect the other way, or another doubt; inactive = no such curve, though single readings can be large or run the other way. No potency is given beside an inconclusive call; the fits are too rough.

experiment: qHTS for induction of synthetic lethality in tumor cells producing 2HG: qHTS for the HT-1080-IDH1KD cell line; settings: HT-1080 IDH1 knockdown viability, ATP luminescence, 48 h; activity, negative = toxicity: at 46.1 µM (top of the series) unless noted;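 for activity, negative = toxicity: 0% = DMSO wells and -100% = cell-free medium wells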
Procedure, shortened: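 Knockdown cells (IDH1KD HT-1080) received compounds 2 h after plating at 750 cells/well and were kept 48 h at 37 °C in 5% FBS RPMI. A CellTiter-Glo luminescence read gave % activity for curve fitting.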
Potency is the fitted concentration of half-maximal effect; tags give direction and shape of the fitted curve.

Structure (SMILES)	Potency	activity, negative = toxicity
O=c1cnn(-c2ccccc2)c(-c2ccccc2)c1	inconclusive [cytotoxic, single point]	
Cc1cccc(NC(=O)c2cc(S(=O)(=O)NCc3ccco3)ccc2F)c1C	inconclusive [cytotoxic, single point]	
Cc1csc(NC(=O)CCc2c(C)nc3cc(-c4ccc(Cl)cc4)nn3c2C)n1	inactive	
OCC(Cc1ccccc1)Nc1c2ccccc2nc2ccccc12 (stereo unspecified)	inconclusive [cytotoxic, single point]	
CC1(C)Cc2ccccc2-c2nc(NCCCO)[nH]c(=O)c21	inactive	
COc1ccc(NC(=O)c2ccc3c(SCC(=O)O)c4c(nc3c2)CCCC4)c(OC)c1	inactive	
O=C(NCCSCc1ccc(Cl)cc1Cl)c1ccc(CN2CCOCC2)cc1	inconclusive [cytotoxic, single point]	
CC1CCN(CCC(=O)Nc2ccc(Br)cc2)CC1	inconclusive [cytotoxic, single point]	
CCC12CN3CC(CC)(CN(C1)C3c1ccc([N+](=O)[O-])o1)C2=O (stereo unspecified)	inconclusive [rising, single point]	
CCOC(=O)c1ccc(Nc2ccc(-c3ccc(OC)c(OC)c3)nn2)cc1	inconclusive [cytotoxic, single point]	
CCCCCCCCCCCCCCC(O)C[N+](C)(CCO)CCO (stereo unspecified)	active: 18.4 µM	
CC(O)(c1cccc(F)c1)c1nc(-c2cccc(C(F)(F)F)c2)cs1 (stereo unspecified)	inconclusive [cytotoxic, single point]	
Cc1cc(NCCOCCO)n2ncc(-c3ccc(Cl)cc3)c2n1	inconclusive [cytotoxic, single point]	
O=[N+]([O-])c1ccc(N2CCN(c3ccccc3O)CC2)cc1	inactive	
O=C(c1ccc(O)c(Br)c1)c1cc(Br)ccc1O	inconclusive [cytotoxic, partial curve]	
COCCn1c(COC)nc2ccccc21	inactive	
O/N=C/CCn1c(=S)sc2ccccc21	inconclusive [cytotoxic, single point]	
Cc1cc(C(=O)N/N=C/c2c(CO)cnc(C)c2O)c2ccccc2n1	active: 20.6 µM	
COc1ccc(CC2(CO)CCN(Cc3ccc4c(c3)CCO4)CC2)cc1	active: 20.6 µM	
Cc1ccc(OCCC(=O)Nc2cc(S(=O)(=O)N3CCOCC3)ccc2N2CCCC2)cc1	inactive	
CCC(C(=O)Nc1ccc(S(=O)(=O)N2CCN(C)CC2)cc1)c1ccccc1 (stereo unspecified)	inactive	
NC(N)=N/N=C/c1ccc(Cl)cc1Cl	active: 16.4 µM	
CC(=O)OCC1OC(n2c(S)c(C#N)c(-c3ccccc3)c(C#N)c2=O)C(OC(C)=O)C(OC(C)=O)C1OC(C)=O (stereo unspecified)	inconclusive [cytotoxic, single point]	
Cc1ccc(NC(=O)c2cc([N+](=O)[O-])ccc2NCc2cccnc2)cc1	inconclusive [cytotoxic, single point]	

Structure (SMILES)	Potency	activity, negative = toxicity
S=C(Nc1ccc(Cl)c(Cl)c1)NC1CCN(Cc2ccccc2)CC1	active: 23.1 µM	
O=C(OCC(=O)N1CCc2ccccc21)c1cncc(Br)c1	inactive	
CCOc1ccc(NC(=O)CSC2=C(C#N)C(c3ccc4c(c3)OCO4)CC(=O)N2)cc1 (stereo unspecified)	inconclusive [cytotoxic, single point]	
CCC(=O)Nc1nc(-c2ccccc2)ns1	inactive	
O=C(Cc1ccc([N+](=O)[O-])cc1)Nc1cc(C(F)(F)F)cc(C(F)(F)F)c1	inconclusive [cytotoxic, partial curve]	
O=C(COC(=O)C12CC3CC(CC(C3)C1)C2)Nc1nc2c(F)c(F)c(F)cc2s1	inconclusive [cytotoxic, single point]	
Cc1onc(-c2ccccc2)c1C(=O)NNC(=O)c1ccccc1O	inconclusive [cytotoxic, partial curve]	
Cc1ccc(S(=O)(=O)CC(CN2CCCCC2)N2CCCCC2)cc1 (stereo unspecified)	active: 18.4 µM	
O=C(/C=C/c1cn(-c2ccccc2)nc1-c1cccnc1)c1ccco1	inconclusive [cytotoxic, partial curve]	
NS(=O)(=O)c1cc(C(=O)Nc2ccc3c(c2)CCC3)ccc1Cl	inactive	
COc1ccc(C2CC(C(F)(F)F)n3nc(C(=O)NCc4cn(C)nc4C)c(Cl)c3N2)cc1 (stereo unspecified)	inactive	
CC(C)NC(=O)N1Cc2cc(C(=O)NC3CCCC3)nc(-c3cccc(-c4cccnc4)c3)c2[C@H]1CCO	inconclusive [cytotoxic, single point]	
Cc1ccccc1NC(=S)NC(NC(=O)c1ccco1)C(Cl)(Cl)Cl (stereo unspecified)	inactive	
C/C(CC(=O)Nc1cc(C)ccn1)=N\NC(=O)c1cccc(C)c1O	inconclusive [cytotoxic, full curve]	
Oc1ccc(/C=N/N2CCN(C3c4ccccc4-c4ccccc43)CC2)cc1O	inconclusive [cytotoxic, single point]	
NC(=O)Cc1ccc(OCc2nn[nH]n2)cc1	inactive	
CC(C)(C)c1ccccc1NC(=O)Nc1nc(C(N)c2ccccc2Cl)cs1 (stereo unspecified)	inconclusive [cytotoxic, single point]	
COc1ccc(Oc2nc(SC)nc3ccsc23)cc1	inconclusive [cytotoxic, single point]	
CCOc1ccc(NC(=O)CSc2nnc3c(n2)[nH]c2ccc(S(=O)(=O)N4CCCCC4)cc23)cc1	inconclusive [cytotoxic, single point]	
C[C@H](c1ccccc1)n1nnc(COCc2ccccc2)c1C#CCOCc1ccccc1	inactive	
CCOc1ccc(CCN2C(=O)c3ccc(C(=O)O)cc3C2=O)cc1OCC	inactive	
CSc1cccc(NC(=O)OC2CCCCCCCCCCC2)c1	inactive	
CC1CC(C)CN(CCCNC(=O)Cc2c(C(=O)O)n(C)c3ccccc23)C1 (stereo unspecified)	inactive	
O=C(N/N=C\C=C\c1ccco1)c1cncc(Br)c1	inconclusive [rising, partial curve]	

Structure (SMILES)	Potency	activity, negative = toxicity
O=C(CS(=O)c1ccc(C(F)(F)F)cc1[N+](=O)[O-])Oc1ccccc1 (stereo unspecified)	active: 16.4 µM	
Cn1c(C(C#N)C(=O)c2sc3ccccc3c2Cl)nc2ccccc21 (stereo unspecified)	inconclusive [cytotoxic, partial curve]	
CCC12CCC3c4ccc(O)cc4CCC3C1CC(O)C2O (stereo unspecified)	inconclusive [cytotoxic, single point]	
C[C@]12c3[nH]c4ccccc4c3CCN1C(=O)C(CC(=O)NCC13CC4CC(CC(C4)C1)C3)C[C@@H]2C(=O)N1CCCCC1 (stereo partly specified)	inconclusive [cytotoxic, single point]	
COc1ccc(C(=O)N(Cc2ccco2)C(C(=O)NC2CCCC2)c2ccc(O)cc2)cc1OC (stereo unspecified)	inconclusive [cytotoxic, single point]	
COc1cccc2sc(N(CCCN(C)C)C(=O)C(c3ccccc3)c3ccccc3)nc12	inconclusive [cytotoxic, single point]	
COc1cc(Cc2nc3ccccc3n2C(C)c2nc3ccccc3[nH]2)cc(OC)c1 (stereo unspecified)	inactive	
CN(C)S(=O)(=O)c1cccc(-c2nn(-c3ccccc3)cc2/C=C2\SC(=S)N(CC(=O)O)C2=O)c1	inconclusive [cytotoxic, single point]	
Cc1ccc2c(c1)c(CC(=O)Nc1ccc(C)c(F)c1)c(C(=O)O)n2C	inconclusive [cytotoxic, single point]	
Cc1cc(Br)ccc1NCc1ccccn1	inactive	
Cn1c(=O)n(C)c2cc([N+](=O)[O-])c(N3CCN(S(=O)(=O)c4ccc5ccccc5c4)CC3)cc21		inactive: 7.39% [at 9.24 µM]
CCn1c(SCc2nc3scc(-c4ccccc4)c3c(=O)[nH]2)nnc1-c1cccs1	inconclusive [cytotoxic, single point]	
COc1c(/C=N/NC(=O)c2ccccc2O)c(CCN(C)C(C)=O)cc2c1OCO2	inconclusive [rising, partial curve]	
CCN1CCCC1CN(Cc1cc2ccc(C)cc2[nH]c1=O)C(=S)Nc1ccccc1C(=O)OC (stereo unspecified)	inconclusive [cytotoxic, single point]	
Cc1cc(Br)cc2c1N(C)C(=O)C2(c1ccc(O)cc1)c1ccc(O)cc1	inconclusive [cytotoxic, partial curve]	
CC(C(=O)NC(C)(C)C)n1c(C(c2ccccc2)c2ccccc2)nc2ccccc21 (stereo unspecified)		inconclusive: -30.4% [cytotoxic]
Cc1ccc2c(c1)N(CC(=O)NCCc1c[nH]c3ccccc13)C(=O)CO2	inconclusive [cytotoxic, single point]	
CCOC(=O)c1ccc(N2CCOCC2)c(NC(=O)c2c(-c3ccccc3)noc2C)c1	active: 2.06 µM	
COc1cc(/C=C/c2nc(-c3ccccc3O)n[nH]2)cc(OC)c1OC	inconclusive [cytotoxic, single point]	
CN(C(=O)c1cc(COc2ccc(F)cc2Cl)on1)C1CCCc2ccccc21 (stereo unspecified)	inconclusive [cytotoxic, single point]	
CC(=O)CC(=O)NC1CCc2ccccc21 (stereo unspecified)	inactive	
Brc1ccc(C2=CC(c3cccs3)n3ncnc3N2)cc1 (stereo unspecified)	inconclusive [cytotoxic, single point]	
Cc1c(C(=O)N(C)C2CCCCC2)sc2ncnc(N3CCN(c4ccccc4)CC3)c12	inconclusive [cytotoxic, single point]	
